From PubChem BioAssay AID540267 (National Center for Advancing Translational Sciences (NCATS), 2011)
Screen size: about 340,000 compounds; about 530 (0.16%) were called active. Inconclusive results, whose numbers are uncertain, are shown with a selection of clear calls. Rule as the data show it: active = activity change below about -80%; inconclusive = between about -30% and that limit; inactive = weaker than that.

experiment: Small Molecules that selectively kill Giardia lamblia: qHTS; conditions: Giardia lamblia trophozoite viability; at 7.66 µM; active compounds read low;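 also: parasites exposed to compound for two days anaerobically before the ATP read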
Procedure, shortened: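 Anaerobic 48 hrs incubation at 37 deg C of 100 trophozoites/well with test compounds; ATPLite 1-Step luminescence, 15-30 min RT, reports cellular ATP as viability.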
% is scaled to controls: 0 for no effect and ±100 for the full control effect.

SMILES	activity change
COc1cccc(C2NC(=O)NC(C)=C2C(=O)OCC2CCCCC2)c1 (configuration not stated)	inactive: -20.8%
CC(=O)Nc1nc(C)cs1	inconclusive: -30.5% [inhibitor]
Cc1ccc(NC(=O)CN(C)S(=O)(=O)c2cccc3cccnc23)cc1	inconclusive: -36.6% [inhibitor]
CCOC(=O)N/N=C/c1ccc(OCCSc2ccc(Cl)cc2)c(OCC)c1	inactive: -7.69%
O=CN1CCN(S(=O)(=O)c2ccc(S(=O)(=O)NC3CCCCC3)cc2)CC1	inconclusive: -40% [inhibitor]
Cc1cc(C(=O)NCC(=O)OC(C)C(=O)N2CCOCC2)ccc1[N+](=O)[O-] (configuration not stated)	inconclusive: -32.8% [inhibitor]
CNc1nc(-c2ccc3c(c2)CCN3C(=O)CC(C)(C)C)c(C)s1	inactive: 9.2%
Cc1ncsc1CCC(=O)N1CCCC(C(=O)c2cccc(Cl)c2)C1 (configuration not stated)	inconclusive: -33.1% [inhibitor]
CCc1cccc(NC(=O)CCCSc2nc3ccccc3[nH]2)c1	inconclusive: -66.1% [inhibitor]
CC(NC(=O)c1cccs1)C1CCCO1 (configuration not stated)	inactive: 9.02%
O=C(OCc1nc2ccccc2[n+]([O-])c1C(=O)c1ccccc1)c1cccnc1	inconclusive: -32.5% [inhibitor]
CC1CCN(Cc2cc(=O)oc3cc4c(cc23)CCCC4)CC1	inconclusive: -34.2% [inhibitor]
COc1ccc(C(=O)Nc2nnc(SCC(=O)NC3CCCC3)s2)c(OC)c1	inconclusive: -51% [inhibitor]
Cc1ccc(S(=O)(=O)N2CCN(S(C)(=O)=O)C2)cc1	inconclusive: -32.7% [inhibitor]
COc1cc(/C=C2\COC/C(=C\c3ccc(O)c(OC)c3)C2=O)ccc1O	inconclusive: -32.6% [inhibitor]
CC(C)(C)c1ccc(S(=O)(=O)N2CCN(c3nc(-c4ccccc4)nc4ccccc34)CC2)cc1	inactive: 8.14%
c1cc2c(cc1CN1CCOCC1)OCO2	inconclusive: -38.5% [inhibitor]
O=C(Nc1ccccc1)C1C2CCCCC21 (configuration not stated)	inactive: -25.6%
COc1ccc(S(=O)(=O)Nc2cccc3c2O[C@@H](CN(C)Cc2ccc(C(=O)O)cc2)[C@@H](C)CN([C@H](C)CO)C3=O)cc1	inconclusive: -31.7% [inhibitor]
O=C(Nc1nnc(CSCc2ccc(Cl)cc2)s1)c1cccc([N+](=O)[O-])c1	inactive: -18.7%
COc1ccc(S(=O)(=O)Nc2c(O)c3ccccc3oc2=O)cc1	inconclusive: -46.7% [inhibitor]
CC(C)(C)n1cnnc1Sc1ncccc1[N+](=O)[O-]	inconclusive: -43% [inhibitor]
